# Reference: PubChem BioAssay AID504466 (National Center for Advancing Translational Sciences (NCATS), 2011)
# The whole screen tested about 330,000 compounds, of which about 4,200 (1.3%) were called active. This list was built around the results that the source calls inconclusive (neither active nor inactive); the mix of calls is not that of the screen. The call rests on the fitted dose curve; in most records, active means well fitted activation curve with a large enough effect; inconclusive means small, poorly fitted or top-dose-only effect; inactive means no such curve, though single readings can be large or run the other way. Potencies of inconclusive entries are doubtful fits and often do not repeat.
# Experiment: qHTS screen for small molecules that induce genotoxicity in human embryonic kidney (HEK293T) cells expressing luciferase-tagged ELG1; further: nearly all actives have a fitted effect of over 60% in size
# Settings: HEK293T ELG1-luciferase reporter, luminescence, 16 h; series mostly up to 46 µM
# Procedure, shortened: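 HEK293T cells expressing luciferase-tagged ELG1 were treated with compound or DMSO for 16 hr at 37°C. Luciferase activity was then read after 30 min with ONE-Glo at room temperature; rising signal flags genetic stress.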
# Potency means the concentration at half of the fitted maximal effect; tags describe the fitted curve by direction and shape.
row,SMILES,Potency
1,Cc1ccc(NC(=O)Nc2ccc3c(c2)OCO3)nc1,"inconclusive: 10.3 µM [activator, partial curve]"
2,NC(=O)c1cccnc1Nc1cccc([N+](=O)[O-])c1,"inconclusive: 18.3 µM [activator, partial curve]"
3,Cc1ccc(NC(=O)c2ccc(Cl)c(S(=O)(=O)N3CCCCCC3)c2)nc1,"inconclusive: 20.6 µM [activator, single point]"
4,Cc1cccc(NC(=O)N2CCCCCC2)c1,"inconclusive: 23.1 µM [activator, single point]"
5,CC1(C)CC(=O)c2cnc(N3CCc4ccccc4C3)nc2C1,active: 1.84 µM
6,Cc1ccc(OCCOc2ccc(Cl)cc2Cl)c([N+](=O)[O-])n1,"inconclusive: 29.1 µM [activator, partial curve, poor fit]"
7,O=C(CSc1nnnn1-c1ccccc1)Nc1nsc(-c2ccc(Cl)cc2)n1,"inconclusive: 18.4 µM [activator, single point]"
8,CCC(=O)Nc1ccc2c(c1)ncn2-c1ccccc1,"inconclusive: 20.6 µM [activator, partial curve, poor fit]"
9,O=C(O)c1c(-c2ccccc2)c2oc3ccccc3c2[nH]c1=O,"inconclusive: 18.4 µM [activator, single point]"
10,CC(=O)Nc1cc2cc(NS(=O)(=O)c3ccc(Cl)cc3)ccc2oc1=O,"inconclusive: 25.9 µM [activator, partial curve, poor fit]"
11,CCOC(=O)[C@H]1[C@H]2COc3cc(OC)ccc3[C@@H]2N2C(=O)c3c(C)cc(C)cc3NC(=O)[C@@]12C,inactive
12,CN(c1ccccc1)c1nc2ccsc2c(=O)s1,active: 13 µM
13,COc1ccc2c(/C=N/Nc3ccc(C(=O)O)cc3)c[nH]c2c1,"inconclusive: 4.11 µM [activator, full curve]"
14,COCCn1c(SCC(=O)NCCc2ccccc2)nc2c([nH]c3ccccc32)c1=O,"inconclusive: 29.1 µM [activator, single point]"
15,C/C(=N\O)c1ccco1,inactive
16,CCOC(=O)c1sc(=NC(=O)COc2ccccc2)n(C)c1C,"inconclusive: 16.4 µM [activator, partial curve, poor fit]"
17,O=C(N/N=C/c1cn(Cc2ccccc2)c2ccccc12)c1cccnc1,"inconclusive: 29.1 µM [activator, partial curve, poor fit]"
18,CC(=O)N1N=C(c2ccc(C)cc2)CC1c1ccco1 (stereo unspecified),"inconclusive: 18.3 µM [activator, partial curve, poor fit]"
19,Cc1cc(C)c2cc(C(=O)Nc3ccc4c(c3)OCO4)[nH]c2c1,inactive
20,Cn1ccc(C(=O)Nc2ccc(Br)cc2Br)n1,active: 4.61 µM
21,Cc1ccc(N/N=C2/CCCNC2=O)cc1,inactive
22,COC(=O)CNC(=O)C1CCCN1C(=O)CNC(=O)OC(C)(C)C (stereo unspecified),"inconclusive: 20.6 µM [activator, single point]"
23,Fc1cccc(Nc2nc3ccccc3n3nnnc23)c1,"inconclusive: 29.1 µM [activator, single point]"

row,SMILES,Potency
1,CCOc1ccc(OCc2cccc(C(=O)N(CC)CC)c2)cc1,"inconclusive: 0.461 µM [activator, partial curve]"
2,CCC(C)NC(=O)c1ccc2c(Cl)c3c(nc2c1)CCC3 (stereo unspecified),"inconclusive: 14.6 µM [activator, partial curve]"
3,Cc1ccccc1OCC(=O)Nc1ccc2c(c1)ncn2C,"inconclusive: 18.3 µM [activator, partial curve]"
4,Cc1ccc(C)c(N(CC(=O)NN=C2CCCCCCC2)S(C)(=O)=O)c1,inactive
5,Nc1ccccc1N=Nc1ccccc1N,"inconclusive: 6.51 µM [activator, partial curve]"
6,COc1ccc2[nH]c3c(NCCCOC(C)C)ncnc3c2c1,"inconclusive: 2.06 µM [activator, partial curve]"
7,Cc1ccc(O)c(C(=O)c2cnn(-c3ccccc3)c2)c1,"inconclusive: 8.2 µM [activator, partial curve, poor fit]"
8,Cn1nc(C(=O)NNC(=O)c2ccc(Cl)cc2)ccc1=O,inactive
9,Cc1ccc(-c2nc3ccccc3s2)cc1NC(=S)NC(=O)c1cccc2ccccc12,"inconclusive: 13 µM [activator, partial curve]"
10,Cc1cc(C)c2c(N)c(C(=O)NNC(=O)c3ccccc3)sc2n1,"inconclusive: 23.1 µM [activator, partial curve]"
11,CC(C)Sc1nc(NCc2ccco2)c2c3c(sc2n1)COC(C)(C)C3,"inconclusive: 25.9 µM [activator, single point]"
12,O=C(CSc1ccsc1[N+](=O)[O-])Nc1cccc(F)c1,inactive
13,CC1CC1C(=O)OCC(=O)NC(=O)NC12CC3CC(CC(C3)C1)C2 (stereo unspecified),"inconclusive: 23.1 µM [activator, partial curve, poor fit]"
14,CCOc1cccc(-c2cc(C(=O)N/N=C/c3ccc(OC)c(CN4CCOCC4)c3)c3ccccc3n2)c1,inactive
15,O=C(COc1ccc2ccccc2c1Br)N1CCCC1,"inconclusive: 10.3 µM [activator, partial curve]"
16,CCOC(=O)c1ccc(NC(=O)CCn2nnc3ccccc32)cc1,inactive
17,O=C(Nc1nccs1)C(Br)C(Br)c1ccccc1 (stereo unspecified),"inconclusive: 1.83 µM [activator, full curve]"
18,O=C(CSc1nc2ccccc2[nH]1)NCc1ccco1,"inconclusive: 20.6 µM [activator, partial curve, poor fit]"
19,CCCCOC(=O)Nc1ccc(N(C)C)cc1,active: 9.2 µM
20,COc1ccc(-n2c(C)cc(C(=O)CCl)c2C)cc1,"inconclusive: 29.1 µM [activator, partial curve, poor fit]"
21,CCSc1nnc(NC(=O)c2csc(C)c2)s1,"inconclusive: 2.06 µM [activator, full curve]"
22,Cn1nc(-c2ccc(N3CCOCC3)c(NS(=O)(=O)c3ccccc3)c2)c2ccccc2c1=O,active: 13 µM
23,Nc1ccc(NC(=O)NC2CCCCC2)cc1[N+](=O)[O-],"inconclusive: 14.6 µM [activator, partial curve]"
